Measured values reported in patent US20240166765A1, “INFLAMMATORY DISEASE TREATMENT USING ANTI-TISSUE FACTOR ANTIBODIES” (Iconic Therapeutics LLC, priority 2020, published 2024).

Assays:
[1] = test system: TF-positive HPAF-II cells; test: Cytotoxicity assay of ADCs, HPAF-II cells; format: cell-based, human; settings: Primary ADC, Continuous treatment, FIG. 22E
TF-positive A431 cells [2] = test: Cell viability / internalization assay with anti-human Fc MMAF secondary; format: cell-based; settings: Secondary ADC (antibody with anti-human Fc Fab:MMAF), Continuous treatment, FIG. 18B
TF:FVIIa = target: T1, TF:FVIIa (Homo sapiens, UniProt P13726); test: FXa conversion assay on MDA-MB-231 cells; format: cell-based; settings: as summarised in Example 23
T1 construct: host or cells: MDA-MB-231
Protocol: (§1) To evaluate the ability of TF:FVIIa to convert FX into FXa in the presence of human antibodies against TF, 5×10^4 MDA-MB-231 cells (ATCC, Manassas, VA, USA) were plated into tissue culture-treated black 96-well plates (Greiner Bio-One, Monroe, NC, USA). […] Upon reconstitution of the binary TF:FVIIa complex with a final concentration of 20 nM of FVIIa, cells were incubated for 5 min at 37° C.
as §1, with “Briefly,” for “To evaluate the ability of TF:FVIIa to convert FX into FXa in the presence of human antibodies against TF,”, “USA) and cultured overnight.” for “USA).”

TF-positive A431 cells [3] = test: Cytotoxicity assay of ADCs, A431 cells; format: cell-based, human; settings: Primary ADC
Protocol: To evaluate cytotoxicity of ADCs, TF-positive A431 and HPAF-II cells were plated in 384-well plates (Greiner Bio-One, Monroe, NC, USA) at 4×10^3 cells per well in 40 μL of media. Anti-TF antibodies conjugated to MC-vc-PAB-MMAE were serially diluted starting at 5 nM. Plates were incubated for 3 to 4 days, followed by lysis in CellTiter-Glo (CTG) assay reagent (Promega, Madison, WI, USA). CTG luminescence was measured on an Envision plate reader and the mean and standard deviation of 4 replicates were graphed in Prism.
To evaluate ADC cytotoxicity, A431 cells were plated in 384-well plates (Greiner Bio-One). Anti-TF antibodies conjugated to MC-vc-PAB-MMAE were serially diluted as shown. The TF-specific ADCs were added to A431 cells, with either a 72 h incubation or a 4 h incubation followed by removal of excess ADC and culture for another 68 h. A431 cells were lysed in CTG assay reagent after treatment. CTG luminescence was measured and the mean and standard deviation of 4 replicates graphed in Prism.

MDA-MB-231 cells = test: Cytotoxicity assay of ADCs, MDA-MB-231 cells; format: cell-based, human; settings: Primary ADC, Continuous treatment, FIG. 22D
mouse TF = target: T2, mouse TF (Mus musculus, UniProt P20352); test: ForteBio (Octet) binding affinity, mouse TF; settings: KD for mouse antigen no greater than 20 times KD for human antigen
T2 construct: made in house; host or cells: Expi293

pig TF (TF-His) = test: Biacore binding affinity, pig TF; settings: Example 22
human TF (TF-His) = target: T3, human TF (TF-His) (Homo sapiens, UniProt P13726); test: Biacore binding affinity, human TF
T3 construct: human, cynomolgus, or mouse TF ECD-His6 (TF-His); made in house; host or cells: Expi293

human TF = target: T4, human TF (Homo sapiens, UniProt P13726); test: ForteBio (Octet) binding affinity, human TF
T4 construct: made in house; host or cells: Expi293

Expi293-derived TF-His = target: T5, Expi293-derived TF-His (Homo sapiens, UniProt P13726); test: Protein ELISA, Expi293-derived TF; format: binding; settings: Table 43
T5 construct: Plates coated with Expi293- or E. coli-derived TF-His; made in house; host or cells: Expi293

cynomolgus TF = test: ForteBio (Octet) binding affinity, cynomolgus TF; parameters: species or system cynomolgus monkey
[4] = test system: TF-positive Macaca mulatta RF/6A cells; test: Cell-based binding assay, RF/6A cells
E. coli-derived TF-His = target: T6, E. coli-derived TF-His (Homo sapiens, UniProt P13726); test: Protein ELISA, E. coli-derived TF; format: binding; settings: Table 43
T6 construct: made in house; host or cells: E. coli

cynomolgus TF (TF-His) = test: Biacore binding affinity, cynomolgus TF; parameters: species or system cynomolgus monkey
[5] = 4 hr, followed by washout, FIG. 20B
[6] = 4 hr, followed by washout, FIG. 21A

T1 sequence (P13726 33-295): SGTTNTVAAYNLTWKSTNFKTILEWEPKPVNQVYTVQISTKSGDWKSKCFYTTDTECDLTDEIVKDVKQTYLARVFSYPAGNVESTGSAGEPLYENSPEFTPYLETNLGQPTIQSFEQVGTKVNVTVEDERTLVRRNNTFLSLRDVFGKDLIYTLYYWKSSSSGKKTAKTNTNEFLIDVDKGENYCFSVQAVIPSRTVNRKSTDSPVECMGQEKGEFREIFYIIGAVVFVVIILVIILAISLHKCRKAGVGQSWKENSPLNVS
T2 sequence (P20352 with tags, fused parts or gaps limits assumed): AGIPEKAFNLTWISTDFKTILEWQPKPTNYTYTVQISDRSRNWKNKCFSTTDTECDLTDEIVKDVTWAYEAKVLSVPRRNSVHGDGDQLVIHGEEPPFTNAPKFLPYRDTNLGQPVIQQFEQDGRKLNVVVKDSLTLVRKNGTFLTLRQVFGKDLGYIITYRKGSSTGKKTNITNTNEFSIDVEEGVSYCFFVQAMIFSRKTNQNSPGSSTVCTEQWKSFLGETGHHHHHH
T6 sequence (P13726 33-251 limits assumed): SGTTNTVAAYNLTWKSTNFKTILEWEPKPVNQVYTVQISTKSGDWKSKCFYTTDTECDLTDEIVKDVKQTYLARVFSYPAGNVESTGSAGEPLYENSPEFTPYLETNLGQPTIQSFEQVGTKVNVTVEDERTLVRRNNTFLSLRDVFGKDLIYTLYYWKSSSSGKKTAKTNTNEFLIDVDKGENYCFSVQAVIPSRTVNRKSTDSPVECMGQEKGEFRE
T5 sequence (P13726 with tags, fused parts or gaps): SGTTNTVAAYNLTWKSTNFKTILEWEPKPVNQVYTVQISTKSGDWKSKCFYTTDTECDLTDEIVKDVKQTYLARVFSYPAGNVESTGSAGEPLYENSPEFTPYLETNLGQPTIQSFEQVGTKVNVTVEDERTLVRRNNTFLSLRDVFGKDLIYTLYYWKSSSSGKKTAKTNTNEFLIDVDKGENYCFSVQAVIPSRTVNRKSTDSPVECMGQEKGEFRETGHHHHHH
T4 sequence (P13726 with tags, fused parts or gaps limits assumed): as the sequence (P13726 with tags, fused parts or gaps) above
T3 sequence (P13726 with tags, fused parts or gaps): as above

| Molecule | IC50 [1] | IC50 (TF-positive A431 cells [2]) | effect on FX conversion (TF:FVIIa) | IC50 (TF-positive A431 cells [3]; [5]) | IC50 (TF-positive A431 cells [3]; [6]) | IC50 (TF-positive A431 cells [3]; Continuous treatment, FIG. 20A) | IC50 (MDA-MB-231 cells) | cross-reactive with mTF (mouse TF) | binding activity and cross-reactivity to pig TF (pig TF (TF-His)) | Kd (human TF (TF-His)) | Kd (human TF) | EC50 (Expi293-derived TF-His) | Kd (cynomolgus TF) | EC50 [4] | EC50 (E. coli-derived TF-His) | Kd (cynomolgus TF (TF-His)) |
| --- | --- | --- | --- | --- | --- | --- | --- | --- | --- | --- | --- | --- | --- | --- | --- | --- |
| 25G1 (antibody) heavy: QVQLVQSGAEVKKPGASVKVSCKASGYTFRSYGISWVRQAPGQGLEWMGWVAPYSGNTNYAQKLQGRVTMTTDTSTSTAYMELRSLRSDDTAVYYCARDAGTYSPYGYGMDVWGQGTTVTVSSASTKGPSVFPLAPSSKSTSGGTAALGCLVKDYFPEPVTVSWNSGALTSGVHTFPAVLQSSGLYSLSSVVTVPSSSLGTQTYICNVNHKPSNTKVDKRV[sequence of human IgG1 Fc omitted] light: DIQMTQSPSTLSASVGDRVTITCRASHSIDSWLAWYQQKPGKAPKLLIYKASYLESGVPSRFSGSGSGTEFTLTISSLQPDDFATYYCQLFQSLPPFTFGGGTKVEIKRTVAAPSVFIFPPSDEQLKSGTASVVCLLNNFYPREAKVQWKVDNALQSGNSQESVTEQDSKDSTYSLSSTLTLSKADYEKHKVYACEVTHQGLSSPVTKSFNRGEC | 0.04 nM | 0.08 nM | does not substantially affect FX conversion | 0.19 nM | 0.1 nM | 0.06 nM | 0.09 nM | cross-reactive | – | – | – | – | – | – | – | – |
| 25G9: human anti-TF antibody, group 25; sequences in Tables 13 and 22 (antibody) heavy: QVQLVQSGAEVKKPGASVKVSCKASGYTFRSYGISWVRQAPGQGLEWMGWVAPYSGNTNYAQKLQGRVTMTTDTSTSTAYMELRSLRSDDTAVYYCARDAGTYSPYGYGMDVWGQGTTVTVSSASTKGPSVFPLAPSSKSTSGGTAALGCLVKDYFPEPVTVSWNSGALTSGVHTFPAVLQSSGLYSLSSVVTVPSSSLGTQTYICNVNHKPSNTKVDKRV[sequence of human IgG1 Fc omitted] light: DIQMTQSPSTLSASVGDRVTITCQASQSIDSWLAWYQQKPGKAPKLLIYSASYLESGVPSRFSGSGSGTEFTLTISSLQPDDFATYYCQRFQSLPPFTFGGGTKVEIKRTVAAPSVFIFPPSDEQLKSGTASVVCLLNNFYPREAKVQWKVDNALQSGNSQESVTEQDSKDSTYSLSSTLTLSKADYEKHKVYACEVTHQGLSSPVTKSFNRGEC | – | – | – | – | – | – | – | cross-reactive | exhibit binding activity and cross-reactivity | – | – | – | – | – | – | – |
| 25A3 (antibody) heavy: QVQLVQSGAEVKKPGASVKVSCKASGYTFDVYGISWVRQAPGQGLEWMGWIAPYSGNTNYAQKLQGRVTMTTDTSTSTAYMELRSLRSDDTAVYYCARDAGTYSPFGYGMDVWGQGTTVTVSSASTKGPSVFPLAPSSKSTSGGTAALGCLVKDYFPEPVTVSWNSGALTSGVHTFPAVLQSSGLYSLSSVVTVPSSSLGTQTYICNVNHKPSNTKVDKRV[sequence of human IgG1 Fc omitted] light: DIQMTQSPSTLSASVGDRVTITCQASQSINNWLAWYQQKPGKAPKLLIYKAYNLESGVPSRFSGSGSGTEFTLTISSLQPDDFATYYCQLFQSLPPFTFGGGTKVEIKRTVAAPSVFIFPPSDEQLKSGTASVVCLLNNFYPREAKVQWKVDNALQSGNSQESVTEQDSKDSTYSLSSTLTLSKADYEKHKVYACEVTHQGLSSPVTKSFNRGEC | 0.05 nM | 0.09 nM | does not substantially affect FX conversion | 0.19 nM | 0.12 nM | 0.07 nM | 0.11 nM | – | – | – | – | – | – | – | – | – |
| 43D7 (antibody) heavy: QVQLQQWGAGLLKPSETLSLTCAVYGGSLSGYYWSWIRQPPGKGLEWIGEIGASGSTRYNPSLKSRVTISVDTSKNQFSLKLSSVTAADTAVYYCARDTPYYYEGGYYYYMDVWGKGTTVTVSSASTKGPSVFPLAPSSKSTSGGTAALGCLVKDYFPEPVTVSWNSGALTSGVHTFPAVLQSSGLYSLSSVVTVPSSSLGTQTYICNVNHKPSNTKVDKRV[sequence of human IgG1 Fc omitted] light: EIVLTQSPGTLSLSPGERATLSCRASDSVDSSYLAWYQQKPGQAPRLLIYGAFSRANGIPDRFSGSGSGTDFTLTISRLEPEDFAVYYCQQAGVVPYTFGGGTKVEIKRTVAAPSVFIFPPSDEQLKSGTASVVCLLNNFYPREAKVQWKVDNALQSGNSQESVTEQDSKDSTYSLSSTLTLSKADYEKHKVYACEVTHQGLSSPVTKSFNRGEC | 0.05 nM | 0.1 nM | does not substantially affect FX conversion | 0.28 nM | 0.14 nM | 0.06 nM | 0.14 nM | – | – | 0.06 nM | 1.02 nM | 0.71 nM | 1.11 nM | 0.41 nM | 0.43 nM | 0.12 nM |
